Structures can show the parent of a compound that is named as a salt. Where two headings read alike, the source gives them in different places.
Key:
human NTCP [1] = molecular target: T1, human NTCP (Homo sapiens, UniProt Q14973); assay: Screening taurocholate uptake assay (96-well, [14C]taurocholate, 10 µM drug); conditions: for remaining activity at 10 µM: 10 min, read-out: %NTCP activity
T1 sequence (Q14973 1-349): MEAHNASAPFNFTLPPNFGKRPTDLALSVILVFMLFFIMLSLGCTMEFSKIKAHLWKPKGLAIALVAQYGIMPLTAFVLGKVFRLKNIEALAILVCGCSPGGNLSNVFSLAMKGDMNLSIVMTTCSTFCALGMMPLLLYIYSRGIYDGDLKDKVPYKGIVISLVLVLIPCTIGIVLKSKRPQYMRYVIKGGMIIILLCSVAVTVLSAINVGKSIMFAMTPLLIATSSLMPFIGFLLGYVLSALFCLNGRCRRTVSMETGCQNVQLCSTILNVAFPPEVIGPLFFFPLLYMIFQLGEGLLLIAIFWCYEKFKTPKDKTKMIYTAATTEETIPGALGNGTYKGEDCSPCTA

human NTCP [2] = molecular target: T1, human NTCP; assay: Screening fluorescent competitive Myrcludex B-FITC binding assay (96-well, 10 µM drug)
[3] = 0.5 h, read-out: %NTCP binding, screen, 10 µM drug, Myrcludex B-FITC binding
[4] = 0.5 h, read-out: %NTCP binding, Prestwick library screen, Myrcludex B-FITC binding, 10 µM drug
[5] = Prestwick library screen, 10 µM drug, [14C]taurocholate uptake
[6] = Prestwick library screen, 10 µM drug, Myrcludex B-FITC binding

Row | SMILES | remaining activity at 10 µM (human NTCP [1]) [%] | remaining activity at 10 µM (human NTCP [2]; 0.5 h, read-out: %NTCP binding) [%] | also measured
1 | C[C@H](CCC(=O)O)[C@H]1CC[C@H]2[C@@H]3C(=O)C[C@@H]4CC(=O)CC[C@]4(C)[C@H]3CC(=O)[C@]12C [Dehydrocholic acid] | 70.1 | 85.6 | 
2 | CC(C(=O)O)c1ccc2c(c1)[nH]c1ccc(Cl)cc12 (stereo not shown) [Carprofen] | 58 | 118 | 
3 | CCN(CC)CCCC(C)Nc1ccnc2cc(Cl)ccc12 (stereo not shown) [Chloroquine diphosphate] | 90.9 | 76.7 | 
4 | C#C[C@]1(O)CC[C@H]2[C@@H]3CCC4=C(CCC(=O)C4)[C@H]3CC[C@@]21C [Norethynodrel] | 129 | 108 | 
5 | CN(C)[C@@H]1C(O)=C(C(N)=O)C(=O)[C@@]2(O)C(O)=C3C(=O)c4c(O)ccc(Cl)c4[C@@](C)(O)[C@H]3C[C@@H]12 [Chlortetracycline hydrochloride] | 55.3 | 89 | 
6 | CN(C)CCN(Cc1ccccc1)c1ccccn1 [Tripelennamine hydrochloride] | 88.6 | 81.3 | 
7 | O=C(Oc1cccc2cccnc12)c1ccccc1 [Benzoxiquine] | 99.1 |  | remaining activity at 10 µM (human NTCP [2]; [3]): 54.5%
8 | CNCC[C@@H](Oc1ccccc1C)c1ccccc1 [Tomoxetine hydrochloride] | 154 | 69.9 | 
9 | CC(C)[N+](C)(CCC(C(N)=O)(c1ccccc1)c1ccccc1)C(C)C [Isopropamide iodide] | 97.5 |  | remaining activity at 10 µM (human NTCP [2]; [4]): 90.9%
10 | CC(O)(P(=O)([O-])O)P(=O)([O-])O.[Na+].[Na+] [Etidronic acid, disodium salt] |  |  | %NTCP activity (human NTCP [1]; Prestwick library screen, [14C]taurocholate uptake, 10 µM drug): 94.8533%; %NTCP binding (human NTCP [2]; Prestwick library screen, Myrcludex B-FITC binding, 10 µM drug): 86.2088%
11 | O=C(O)/C=C\C(=O)O.O=C(O)/C=C\C(=O)O.c1ccc2nc(N3CCNCC3)ccc2c1 [Quipazine dimaleate salt] |  |  | %NTCP activity (human NTCP [1]; [5]): 121.476%; %NTCP binding (human NTCP [2]; [6]): 88.6853%
12 | Nc1ncn([C@@H]2O[C@H](CO)[C@@H](O)[C@H]2O)c(=O)n1 [Azacytidine-5] |  |  | %NTCP activity (human NTCP [1]; [5]): 100.597%; %NTCP binding (human NTCP [2]; [6]): 93.694%
13 | CN(C)C(=O)Oc1cccc([N+](C)(C)C)c1 [Neostigmine bromide] | 64.5 |  | remaining activity at 10 µM (human NTCP [2]; [4]): 64.6%
14 | CCOCCn1c(N2CCCN(C)CC2)nc2ccccc21 [Emedastine] | 97.6 | 86.1 | 
15 | COc1cc(C(=O)NCc2ccc(OCCN(C)C)cc2)cc(OC)c1OC [Trimethobenzamide hydrochloride] | 122 | 112 | 
16 | Nc1cc(C(Cl)=C(Cl)Cl)c(S(N)(=O)=O)cc1S(N)(=O)=O [Clorsulon] | 105 | 33.6 | 
17 | CCN(CC)C(C)CN1c2ccccc2Sc2ccccc21 (stereo not shown) [Ethopropazine hydrochloride] | 116 | 106 | 
18 | CC(C)Oc1ccc2c(=O)c(-c3ccccc3)coc2c1 [Ipriflavone] | 99.6 | 93.6 | 
19 | CNCCC(Oc1ccccc1OC)c1ccccc1 (stereo not shown) [Nisoxetine hydrochloride] | 56.3 | 108 | 
20 | Nc1nc2c(ncn2CCC(CO)CO)c(=O)[nH]1 [Penciclovir] | 115 | 85.7 | 
21 | NCc1ccc(S(N)(=O)=O)cc1 [Mafenide hydrochloride] | 90.8 | 51.2 | 
22 | CCCCNc1cc(C(=O)O)cc(S(N)(=O)=O)c1Oc1ccccc1 [Bumetanide] | 37.4 | 71.7 | 

Row | SMILES | remaining activity at 10 µM (human NTCP [1]) [%] | remaining activity at 10 µM (human NTCP [2]; 0.5 h, read-out: %NTCP binding) [%] | also measured
23 | CN1CCN(CC(=O)N2c3ccccc3C(=O)Nc3cccnc32)CC1 [Pirenzepine dihydrochloride] | 111 | 79.6 | 
24 | O=C(O)c1cn(-c2ccc(F)cc2)c2cc(N3CCNCC3)c(F)cc2c1=O [Sarafloxacin] | 131 | 80 | 
25 | CC(=O)OCC(=O)[C@@]12OC3(CCCC3)O[C@@H]1C[C@H]1[C@@H]3CCC4=CC(=O)C=C[C@]4(C)[C@@]3(F)[C@@H](O)C[C@@]12C [Amcinonide] | 54.6 | 59.7 | 
26 | COc1ccc(OC)c(C(O)CNC(=O)CN)c1 (stereo not shown) [Midodrine hydrochloride] | 91.8 | 92.7 | 
27 | CC(=O)[C@H]1CC[C@H]2[C@@H]3C=CC4=CC(=O)CC[C@@]4(C)[C@@H]3CC[C@]12C [Dydrogesterone] | 97.9 | 84.5 | 
28 | COc1cc(NS(=O)(=O)c2ccc(N)cc2)nc(OC)n1 [Sulfadimethoxine] | 103 | 77.1 | 
29 | CCN(CC)CCOC(=O)C1(c2ccc([N+](=O)[O-])cc2)CCCC1.Cl [Nitrocaramiphen hydrochloride] |  |  | %NTCP activity (human NTCP [1]): 106.74%; %NTCP binding (human NTCP [2]; [6]): 112.605%
30 | CCOC(=O)C(C)(C)Oc1ccc(Cl)cc1 [Clofibrate] | 87.5 | 103 | 
31 | Br.COc1ccc2c(c1)[C@]13CCCC[C@@H]1[C@H](C2)N(C)CC3.O |  |  | %NTCP activity (human NTCP [1]): 49.565%; %NTCP binding (human NTCP [2]; [6]): 72.4571%
32 | Cc1cccn2c(=O)c(-c3nnn[nH]3)cnc12 [Pemirolast potassium] | 67.7 | 76.1 | 
33 | O=C1NCCN1CCN1CCC(c2cn(-c3ccc(F)cc3)c3ccc(Cl)cc23)CC1 [Sertindole] | 139 | 77.7 | 
34 | O=C1c2c(O)ccc(O)c2C(=O)c2c(NCCNCCO)ccc(NCCNCCO)c21 [Mitoxantrone dihydrochloride] | 122 | 61.3 | 
35 | Cn1c(=O)c2[nH]cnc2n(C)c1=O [Theophylline monohydrate] | 87.9 |  | remaining activity at 10 µM (human NTCP [2]; [3]): 76.7%
36 | CC(C)(O/N=C(\C(=O)N[C@@H]1C(=O)N2C(C(=O)[O-])=C(C[n+]3ccccc3)CS[C@H]12)c1csc(N)n1)C(=O)O [Ceftazidime pentahydrate] | 35.8 | 75.7 | 
37 | C[C@]12C[C@H]3S[C@H]3C[C@@H]1CC[C@@H]1[C@@H]2CC[C@]2(C)[C@@H](O)CC[C@@H]12 [Epitiostanol] | 80.5 | 113 | 
38 | CCCCOc1cc(C(=O)OCCN(CC)CC)ccc1N [Benoxinate hydrochloride] | 122 | 101 | 
39 | CC[N+](C)(C)c1cccc(O)c1 [Edrophonium chloride] | 43.8 | 85.7 | 
40 | COc1ccc2[nH]c([S+]([O-])Cc3ncc(C)c(OC)c3C)nc2c1 (stereo not shown) [Omeprazole] | 51.5 | 75.2 | 
41 | CC(C(=O)O)c1ccc2c(c1)Cc1cccnc1O2 (stereo not shown) [Pranoprofen] | 96.9 | 84.5 | 
42 | Nc1nc(=S)c2ncn([C@@H]3O[C@H](CO)[C@@H](O)[C@H]3O)c2[nH]1 [Thioguanosine] | 71.7 | 75 | 
43 | CC[C@H](C)C(=O)O[C@H]1CCC=C2C=C[C@H](C)[C@H](CC[C@@H]3C[C@@H](O)CC(=O)O3)[C@H]21 [Mevastatin] | 73.3 | 84.7 | 
44 | COc1ccc2c(c1)c(CC(=O)OCC(=O)O)c(C)n2C(=O)c1ccc(Cl)cc1 [Acemetacin] | 53.2 | 56.6 | 

Source: paper PMC5681660, “Reduced hepatitis B and D viral entry using clinically applied drugs as novel inhibitors of the bile acid transporter NTCP” (Scientific Reports, 2017)
